Measured values: the supplement of paper PMC7125110
Variants at the background level are over-represented here.

B1: glmS ribozyme (parent)
chain: AUAAAAGCGCCAGAACUACAGAAAUGUAGUUGACGAGGAGGAGGUUUAUCGAAUUUUCGGCGGAUGCCUCCAAA

Assays:
Conditions in all cases: with glucosamine-6-phosphate
glucosamine-6-phosphate [1] = variants of: B1; experiment: self-cleavage kobs at 640 uM GlcN6P; higher = faster cleavage; RNA array
Summary of the method: (§1)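 Glucosamine-6-phosphate in HEPES/KCl/Mg(OAc)2 buffer, at 40 μM to 10 mM, was flowed over barcoded ribozyme variants transcribed in situ by E. coli RNA polymerase on sequenced MiSeq chips. Tracking was through a hybridised Cy3 probe at 37 °C. kobs, kcat and KM came from exponential decay fits and weighted Michaelis–Menten fits of normalised per-tile medians.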

glucosamine-6-phosphate [2] = variants of: B1; experiment: self-cleavage kobs at 160 uM GlcN6P; higher = faster cleavage; RNA array
Summary of the method: as §1

glucosamine-6-phosphate [3] = variants of: B1; experiment: self-cleavage kobs at 2500 uM GlcN6P; higher = faster cleavage; RNA array
Summary of the method: as §1

glucosamine-6-phosphate [4] = variants of: B1; experiment: self-cleavage kobs at 10000 uM GlcN6P; higher = faster cleavage; RNA array
Summary of the method: as §1

| Variant | self-cleavage kobs at 640 uM GlcN6P (glucosamine-6-phosphate [1]) [s⁻¹] | self-cleavage kobs at 160 uM GlcN6P (glucosamine-6-phosphate [2]) [s⁻¹] | self-cleavage kobs at 2500 uM GlcN6P (glucosamine-6-phosphate [3]) [s⁻¹] | self-cleavage kobs at 10000 uM GlcN6P (glucosamine-6-phosphate [4]) [s⁻¹] |
| --- | --- | --- | --- | --- |
| AUAAAAGCGACAGAACUACAGAAAUGUAGUUGACGAGGAGGAGGCUUAUCGAAUUUUCGGCGGAUGCCUCCAAA [C10A U45C] | < 1e-05 | < 1e-05 |  |  |
| AUAAAAGCGACAGAACUACAGAAAUGUAGUUGACGCGGAGGCGGUUUAUCGAAUUUUCGGCGGACGCCUCCAAA [C10A A36C A42C U65C] | < 1e-05 | < 1e-05 |  |  |
| AUAAAAGCUCCAGAACUACAGAAAUGUAGUUGACGAGUAGGAGGUUUAUCAAAUUUUCGUCGGAUGCCUCCAAA [G9U G38U G51A G60U] | < 1e-05 | < 1e-05 |  |  |
| AUAAAAGCGACGGAAUUACAGAAAUGUAGUUGACGAGGAGGAGGUUUAUCGAAUUUUCGGCGGAUGCCUCCAAA [C10A A12G C16U] | < 1e-05 |  | < 1e-05 |  |
| AUAAAAGCUCCAGAACUACAGAAAUGUAGUUGACCAGGAGGAGGUUUAUCGAAUUUUCUGCGGAUGCCUCCAAA [G9U G35C G59U] | < 1e-05 |  | < 1e-05 |  |
| AUAAAAGCUCCAGAACUACAGAAAUGUAGUUGACGAGGAGGUGGUUUCUGGAAUUUUCGGCGCAUGUCUCCAAA [G9U A42U A48C C50G G63C C67U] | < 1e-05 |  |  |  |
| AUAAAAGCUCCAGAACUACAGAAAUGUAGUUAACGAGGAGGAGGUUUAUCGAAUUUUCGGCCGAUGCCUCCAAA [G9U G32A G62C] | < 1e-05 |  | < 1e-05 |  |
| AUAAAAGCGGCAGACCUACAGAAAUGUAGUUGACUAUGAGGAGGUUUAUCGUAUUUUCGGCGUAUGCCUCCAAA [C10G A15C G35U G37U A52U G63U] | < 1e-05 | < 1e-05 | < 1e-05 |  |
| AUAAAAGCUCCAGAACUACAGAAAUGUAGUUGACGAGGAGGAGGUUUAUCGUAUUUUCGGCGGAUGCCUCCAAA [G9U A52U] | < 1e-05 | < 1e-05 |  |  |
| AUAAAAGCGGCAGCACUACAGAAAUGUAGUUGACGAGGAGGACGUUUAUCGAAUUUUCGGCGGAUUACUCCAAA [C10G A14C G43C G66U C67A] | < 1e-05 |  |  |  |
| AUAAAAGCUCCAGAACUACAGAAAUGUAGUUAACGAGGAGGAGGUUUAUCGAAUUUUCGGCGGAUGCCUCCAAA [G9U G32A] | < 1e-05 | < 1e-05 |  | < 1e-05 |
| AUAAAAGCGGCAGAAGUACAGAAAUGUAGUUGACGAGGAGGAGAUUUAUCGAAUUUUCGGCGGAUGCCUCCAAA [C10G C16G G44A] | < 1e-05 |  |  |  |
| AUAAAAGCGACAGAACUACAGAAAUGUACGUGACGAGGAGGAGGUUUAUCGAAUUGUCGGCGGAUGCCUCCAAA [C10A G29C U30G U56G] | < 1e-05 |  |  |  |
| AUAAAAGCUCCAGAACUACAGAAAUGUAGUUGACGAGGAGGAGGUGUAUCGAAUUUUCGGCGGAUGCCUCCAAA [G9U U46G] | < 1e-05 | < 1e-05 | < 1e-05 | < 1e-05 |
| AUAAAAGCUCCAGAACUACAGAAAUGUAGUUGACGAGGAGGAGGUAUAUCGAAUUUUCGGCGGAUGCCUCCAAA [G9U U46A] | < 1e-05 | < 1e-05 | < 1e-05 | < 1e-05 |
| AUAAAAGCUCCAGAACUACAGAAAUGUAGUUGACGAGGCGGAGGUUAAGCGAAGUUUCGGCGGAUGCCUCCAAA [G9U A39C U47A U49G U54G] | < 1e-05 |  |  |  |
| AUAAAAGCGGCAGAUCUACAGAAAUGUAGUUGACGUGGAGGAGGUUUAUCGAAUUUUCGGCGGAUGCCUCCAAA [C10G A15U A36U] | < 1e-05 |  |  |  |
| AUAAAAGCGGCAGAACUACAGAAAUGUAGUUGACGGGGCGGAGGUUUAUCGAAUUUUCGGCGGAUGCCUCCAAA [C10G A36G A39C] | < 1e-05 | < 1e-05 |  |  |
| AUAAAAGCGGCUGAACUACAGAAAUGUAGUUGACGAGGAGGAGGUUUAUCGAAUUGUCGGCGGAUGCCUCUAAA [C10G A12U U56G C71U] | < 1e-05 |  |  |  |
